Source: the supplement of paper PMC10441789
The other results are listed elsewhere or left out. Antibody binding of pooled human sera (four to six donors per pool; dilution not stated) to peptides of the Trypanosoma cruzi antigen TSSA on microarrays. Quantile-normalised fluorescence in arbitrary units, mean of duplicate arrays; higher = more binding. No active / inactive call. The uninfected pools are read here as the healthy donors of the same country. The strongest signals lie near the top of the scale (about 60,000).

Key:
Assay in all cases: antibody binding signal (normalised fluorescence) (arbitrary fluorescence units); higher = stronger serum antibody binding to peptide
[1] = system: pooled sera of chronic Chagas disease patients, Argentina
Experimental: (§1)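 Microarray of 15-residue peptides over residues 30-55 of Trypanosoma cruzi TSSAII, each with 1 to 10 substitutions at naturally variable positions, probed with one serum pool per country.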

[2] = system: pooled sera of chronic Chagas disease patients, Bolivia
Experimental: as §1

[3] = system: pooled sera of chronic Chagas disease patients, Brazil
Experimental: as §1

[4] = system: pooled sera of chronic Chagas disease patients, Colombia
Experimental: as §1

[5] = system: pooled sera of chronic Chagas disease patients, Mexico
Experimental: as §1

[6] = system: pooled sera of chronic Chagas disease patients, USA
Experimental: as §1

[7] = system: pooled sera of uninfected people, Argentina
Experimental: as §1

[8] = system: pooled sera of uninfected people, Bolivia
Experimental: as §1

[9] = system: pooled sera of uninfected people, Brazil
Experimental: as §1

[10] = system: pooled sera of uninfected people, Mexico
Experimental: as §1

[11] = system: pooled sera of uninfected people, USA
Experimental: as §1

Row | Sequence | antibody binding signal [1] | antibody binding signal [2] | antibody binding signal [3] | antibody binding signal [4] | antibody binding signal [5] | antibody binding signal [6] | antibody binding signal [7] | antibody binding signal [8] | antibody binding signal [9] | antibody binding signal [10] | antibody binding signal [11]
1 | DKKPAAGGTPSQPGA | 443 | 224 | 684 | 4850 | 394 | 1030 | 287 | 169 | 1660 | 298 | 286
2 | SGKDNKTAAGEAPSQ | 1290 | 8240 | 8570 | 4200 | 1260 | 8080 | 270 | 275 | 167 | 131 | 181
3 | DNKAAAGGAPSPSGA | 511 | 347 | 680 | 1800 | 420 | 745 | 444 | 392 | 290 | 693 | 290
4 | TENKAAAGEAPSPPG | 33600 | 749 | 27000 | 310 | 176 | 12500 | 125 | 89.3 | 141 | 95.3 | 119
5 | STPPSGKDKKTAAGG | 21200 | 933 | 1580 | 811 | 41900 | 1420 | 165 | 465 | 122 | 80.6 | 143
6 | KDNKAAAGETPSPPG | 252 | 201 | 7380 | 227 | 179 | 702 | 327 | 1940 | 206 | 127 | 1100
7 | ISTPPSGKDKKAATG | 18400 | 303 | 589 | 218 | 42700 | 450 | 123 | 324 | 107 | 95.4 | 112
8 | GKDKKPATGETPSQS | 22100 | 4730 | 22400 | 1940 | 1980 | 17600 | 217 | 179 | 129 | 871 | 93.8
9 | GTENKAATGETPSQS | 34200 | 10200 | 23800 | 1300 | 1450 | 13200 | 159 | 433 | 179 | 177 | 88
10 | PSGKDKKAATGEAPS | 19100 | 3800 | 14500 | 2470 | 3360 | 20300 | 311 | 233 | 98.8 | 78.5 | 143
11 | GTEKKTATGETPSPS | 768 | 721 | 860 | 574 | 748 | 8140 | 212 | 701 | 233 | 384 | 2060
12 | EKKAATGGAPSQPGA | 1890 | 1490 | 6650 | 1480 | 2710 | 1600 | 344 | 1560 | 148 | 341 | 801
13 | KENKAATGGAPSQSG | 327 | 241 | 1770 | 237 | 302 | 1490 | 192 | 90.1 | 99 | 78.3 | 148
14 | GKENKTAAGETPSPP | 3540 | 817 | 8270 | 6640 | 6090 | 13700 | 491 | 210 | 126 | 214 | 394
15 | ENKTAAGETPSQSGA | 122 | 775 | 3060 | 192 | 258 | 1820 | 108 | 210 | 214 | 160 | 128
16 | PPSGKEKKTATGGTP | 1440 | 518 | 1450 | 2740 | 3320 | 3390 | 323 | 263 | 112 | 104 | 128
17 | ISTPPSGKDNKTATG | 5830 | 851 | 2920 | 1880 | 15700 | 2290 | 267 | 349 | 149 | 101 | 275
18 | KDNKAAAGETPSPSG | 303 | 227 | 2520 | 232 | 204 | 1380 | 355 | 1760 | 155 | 148 | 1620
19 | KENKTATGGAPSQSG | 309 | 194 | 246 | 444 | 244 | 248 | 281 | 119 | 140 | 130 | 126
20 | DKKTATGGAPSQSGA | 1070 | 310 | 677 | 2290 | 911 | 662 | 328 | 359 | 127 | 457 | 157
21 | PSGTDNKAATGETPS | 11300 | 21200 | 43300 | 380 | 347 | 11400 | 153 | 556 | 1090 | 186 | 136
22 | GTDNKTATGETPSQP | 1150 | 4280 | 37800 | 364 | 219 | 7720 | 126 | 585 | 1550 | 159 | 178
23 | EKKPATGETPSPSGA | 34500 | 26700 | 28200 | 318 | 223 | 21800 | 218 | 697 | 345 | 1740 | 1180
24 | GTENKTAAGEAPSPP | 25600 | 811 | 5610 | 630 | 971 | 9250 | 193 | 361 | 212 | 151 | 125
25 | GKDNKAATGGAPSQS | 604 | 219 | 579 | 955 | 1180 | 1340 | 206 | 200 | 90.8 | 75.4 | 99.7
26 | SGTEKKAATGETPSQ | 2270 | 2310 | 14900 | 286 | 327 | 10600 | 632 | 432 | 221 | 149 | 213
27 | STPPSGKENKAAAGE | 41100 | 31700 | 14300 | 379 | 6460 | 5110 | 2940 | 1990 | 343 | 226 | 297

Row | Sequence | antibody binding signal [1] | antibody binding signal [2] | antibody binding signal [3] | antibody binding signal [4] | antibody binding signal [5] | antibody binding signal [6] | antibody binding signal [7] | antibody binding signal [8] | antibody binding signal [9] | antibody binding signal [10] | antibody binding signal [11]
28 | GTDNKAATGEAPSQS | 25400 | 38100 | 40600 | 183 | 240 | 28700 | 180 | 486 | 1370 | 136 | 110
29 | TPPSGTENKPAAGGT | 52100 | 48300 | 53400 | 370 | 9670 | 30900 | 7580 | 1740 | 1570 | 617 | 889
30 | TDKKTATGGAPSPSG | 1320 | 387 | 854 | 4160 | 728 | 927 | 295 | 246 | 147 | 313 | 159
31 | DKKAATGGAPSPSGA | 775 | 320 | 353 | 2300 | 948 | 1230 | 411 | 783 | 166 | 125 | 137
32 | GTDNKPATGEAPSQS | 47000 | 48200 | 50100 | 1520 | 259 | 47200 | 928 | 1010 | 500 | 419 | 146
33 | TENKAAAGGTPSPPG | 36700 | 262 | 220 | 3070 | 353 | 960 | 100 | 146 | 1190 | 143 | 138
34 | EKKPAAGETPSPPGA | 782 | 298 | 6920 | 455 | 306 | 1950 | 161 | 805 | 218 | 233 | 914
35 | TDKKAAAGEAPSQPG | 7520 | 15300 | 36300 | 357 | 277 | 11400 | 101 | 202 | 142 | 126 | 129
36 | GTENKPATGGTPSQS | 48400 | 6730 | 7570 | 3340 | 5580 | 2610 | 594 | 1950 | 899 | 528 | 195
37 | TPPSGTDNKTATGGT | 37600 | 39400 | 47800 | 717 | 14300 | 11800 | 730 | 617 | 2320 | 238 | 229
38 | TISTPPSGKENKAAT | 12000 | 2810 | 6900 | 713 | 2410 | 1970 | 2910 | 1100 | 194 | 153 | 440
39 | GKENKTATGGAPSPP | 2850 | 610 | 8230 | 5830 | 4830 | 15700 | 533 | 122 | 99.9 | 172 | 151
40 | GKENKPAAGGTPSQS | 811 | 446 | 2200 | 1750 | 2340 | 6480 | 781 | 297 | 552 | 226 | 136
41 | TENKAATGGTPSPSG | 34100 | 1050 | 367 | 336 | 429 | 278 | 136 | 134 | 278 | 168 | 148
42 | PSGKEKKTATGGTPS | 4150 | 893 | 4660 | 6560 | 6820 | 5780 | 337 | 328 | 195 | 128 | 99.2
43 | DKKAAAGETPSQSGA | 806 | 418 | 5560 | 318 | 275 | 1380 | 135 | 187 | 209 | 266 | 169
44 | TDNKPAAGGTPSQSG | 965 | 646 | 1310 | 991 | 281 | 250 | 157 | 648 | 675 | 497 | 122
45 | GTEKKTATGEAPSPP | 12700 | 20300 | 14100 | 1300 | 2650 | 21200 | 187 | 701 | 184 | 120 | 124
46 | STPPSGTDKKPAAGE | 39600 | 41500 | 45400 | 8240 | 33800 | 14600 | 1080 | 256 | 465 | 3920 | 275
47 | TEKKAATGGAPSQPG | 2120 | 398 | 7570 | 1670 | 1710 | 2600 | 511 | 1210 | 170 | 240 | 261
48 | ISTPPSGTDNKPATG | 37800 | 45400 | 51000 | 4290 | 10100 | 27200 | 1180 | 1450 | 879 | 693 | 485
49 | TPPSGKDKKAATGGA | 1610 | 355 | 769 | 1150 | 27500 | 674 | 246 | 492 | 119 | 94.1 | 254
50 | KENKTATGEAPSPPG | 12000 | 20900 | 18800 | 669 | 739 | 19100 | 182 | 136 | 184 | 138 | 138
51 | TDNKAAAGGTPSPPG | 234 | 146 | 223 | 2770 | 209 | 863 | 113 | 218 | 962 | 131 | 95.5
52 | ENKTATGGAPSPPGA | 481 | 1520 | 780 | 487 | 402 | 917 | 399 | 184 | 239 | 225 | 161
53 | GTDKKTATGETPSQP | 734 | 1740 | 29300 | 1390 | 578 | 7330 | 336 | 272 | 336 | 262 | 127
